The source of these data is PMC7819943, “Rice protein-binding microarrays: a tool to detect cis-acting elements near promoter regions in rice”.

This is one part of the list.

The target in the experiment is T1, OsWOX13 (Oryza sativa, UniProt Q5QMM3 1-267).
T1 sequence: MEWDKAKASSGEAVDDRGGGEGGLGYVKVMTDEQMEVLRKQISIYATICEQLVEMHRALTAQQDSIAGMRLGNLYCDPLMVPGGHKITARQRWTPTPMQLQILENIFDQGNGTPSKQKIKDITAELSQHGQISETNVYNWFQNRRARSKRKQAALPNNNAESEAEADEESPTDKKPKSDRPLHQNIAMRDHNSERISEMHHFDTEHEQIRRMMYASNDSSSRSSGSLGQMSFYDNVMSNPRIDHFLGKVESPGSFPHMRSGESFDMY
Put plainly: protein-binding microarray (RPBM); PBS, 2% BSA, 51.3 ng/ul salmon testes DNA, 50 uM zinc acetate, 200 nM TF, 25 C, 1 h; high values mean tight binding. To be noted: protein: recombinant; tags: N-terminal polyhistidine and DsRed monomer fusion (pET32a); label: CyDye5-dUTP incorporated in the synthesized complementary strand; 3' TTTTT single-stranded linker to array surface; dsDNA, one strand shown. The method, boiled down:
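In PBS with 2% BSA, salmon testes DNA and 50 µM zinc acetate, 200 nM protein was incubated on a custom Agilent array at 25 °C for 1 h and then washed off. The array had been made double-stranded by primer extension with Cy5-dUTP and blocked with 2% BSA. The proteins were transcription factors fused N-terminally to polyhistidine and DsRed, expressed in E. coli BL21-CodonPlus and purified on Ni–NTA. The binding signal is per-feature fluorescence intensity (arbitrary units) from an Axon 4000B scanner.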
For the sequence “ACACTTGGAGATTGGTAATAGATTACAGAAAGTTGAATGCCGGAGTCACCTAGTGCAG”, the binding signal was 14300 fluorescence intensity (a.u.).

With “TTATCGTGATGAGTAAATTAAATTTGCACAGTCGATTGTTCGGAGTCACCTAGTGCAG”, the binding signal was 27400 fluorescence intensity (a.u.).

Consider “TCGAAGGTGATTTGTGCGGCATTGAGTTTGGGATCGGAAGCGGAGTCACCTAGTGCAG”, for which the binding signal was 9200 fluorescence intensity (a.u.).

“TATGTGCTAATGGCGAATTAATTAGGTTTAATAAATACGTCGGAGTCACCTAGTGCAG”: the binding signal is 12600 fluorescence intensity (a.u.).

Consider “TGTGACGAAATTTGACGAAATTTTCATGATGTTTTCAGAGCGGAGTCACCTAGTGCAG”, for which the binding signal was 33200 fluorescence intensity (a.u.).

As for “CTAAAAGAATAATTATAACTTTCGATCCCTATGTCCCATACGGAGTCACCTAGTGCAG”, the binding signal was 9120 fluorescence intensity (a.u.).

With “TGCCAAAATTTACAGCTTGATCGAATAGCTTCGCTGCTTGCGGAGTCACCTAGTGCAG”, the binding signal was 4096 fluorescence intensity (a.u.).

For the sequence “TAATAAATTATGAGATCAAATATGTTATTTTGTATGTCTTCGGAGTCACCTAGTGCAG”, the binding signal is 10300 fluorescence intensity (a.u.).

With “AAACAAACATAATTTATCTTATTAGAAAGTAATTTTCTACCGGAGTCACCTAGTGCAG”, the binding signal was 6280 fluorescence intensity (a.u.).

Consider “AGTTTGATAGGCTGCGCTGTTACAGTGTCACTACAGTGTTCGGAGTCACCTAGTGCAG”, for which the binding signal was 15900 fluorescence intensity (a.u.).

Regarding “CCAGATTACCGATTCAACAGCATAAATAAAGTACTCCGGGCGGAGTCACCTAGTGCAG”, the binding signal is 6730 fluorescence intensity (a.u.).

For “GTACTAATCACACCGAATTAGCAGCCCCTCCCTAAGCCATCGGAGTCACCTAGTGCAG”, the binding signal is 14500 fluorescence intensity (a.u.).

As to “AAGATTAGAGTAACTTTCCTATTATGTATTGGATAGACTTCGGAGTCACCTAGTGCAG”, the binding signal is 4080 fluorescence intensity (a.u.).

With “AAAACTATAATTGAAAAGATCAAAATCAACTCTAAGATTTCGGAGTCACCTAGTGCAG”, the binding signal is 20800 fluorescence intensity (a.u.).

In the case of “CTGATTGTAGCAGCGATGCTAACTACAAGTGTGCCACAGTCGGAGTCACCTAGTGCAG”, the binding signal was 4730 fluorescence intensity (a.u.).

Turning to “TCCTAAAATGCCAATGATTCCATTTCCAAAACCATCCAAACGGAGTCACCTAGTGCAG”, the binding signal was 3600 fluorescence intensity (a.u.).

Consider “TGACTTATGATTTATTTTATGACATAGTGAGTATATGCCTCGGAGTCACCTAGTGCAG”, for which the binding signal was 13400 fluorescence intensity (a.u.).

Turning to “GGCTGATTGGGCAGATTCTTTTATTGTTTCTATTTATAAACGGAGTCACCTAGTGCAG”, the binding signal was 26500 fluorescence intensity (a.u.).

As to “TTGTAATAATTGATTTGGCGTGGAGATAAATTTTAGATACCGGAGTCACCTAGTGCAG”, the binding signal was 37300 fluorescence intensity (a.u.).

Regarding “GAAATTGGTACAATGTGACTGAAAAGTTATGTGTATATGACGGAGTCACCTAGTGCAG”, the binding signal was 4280 fluorescence intensity (a.u.).

In the case of “GAATAATTTATGATTATTGTTAACAGTTATAAATGAATGACGGAGTCACCTAGTGCAG”, the binding signal is 45100 fluorescence intensity (a.u.).

Take “TCCCATGTTATGTAATCACCAATCAGACCCACAAAAGATTCGGAGTCACCTAGTGCAG”: the binding signal is 6320 fluorescence intensity (a.u.).

Turning to “TTTGAAAATTAATTGAGCGCATGCCGGTGCCAAATAATATCGGAGTCACCTAGTGCAG”, the binding signal was 14200 fluorescence intensity (a.u.).

Consider “ATAACTGCAAAATCACTGTTCCACACGGTAGCACAGGATACGGAGTCACCTAGTGCAG”, for which the binding signal is 3800 fluorescence intensity (a.u.).

With “AATTGGAAGTTTGATTGAAATTGGAATGATATGACGGAAACGGAGTCACCTAGTGCAG”, the binding signal is 25900 fluorescence intensity (a.u.).

Consider “GGCCAATCAGATTACGATGCTAACTACGGAAATGAATTGCCGGAGTCACCTAGTGCAG”, for which the binding signal was 21500 fluorescence intensity (a.u.).

Turning to “ACTGACATGGTAATTAACTAACTCTCTGTGAAAATTAATGCGGAGTCACCTAGTGCAG”, the binding signal was 23700 fluorescence intensity (a.u.).

Consider “GTTAGATTGACTATAGATAAATTAGAAGCTAGTAGCGAGCCGGAGTCACCTAGTGCAG”, for which the binding signal is 41600 fluorescence intensity (a.u.).

As for “AATTAATTACTAATAATGACTTAATATTCCATCATCTCCCCGGAGTCACCTAGTGCAG”, the binding signal is 27500 fluorescence intensity (a.u.).

With “ACGTAATGATTAATAATCTACGTCTCTCTATTCCGTATTTCGGAGTCACCTAGTGCAG”, the binding signal is 33500 fluorescence intensity (a.u.).

For “ATAATTAATACTTAACTAATTGCGAACTAATAGTTTACATCGGAGTCACCTAGTGCAG”, the binding signal is 35900 fluorescence intensity (a.u.).

In the case of “GTCCGCTACTAGATGAAATCAATCAACACCGTCGGATCGACGGAGTCACCTAGTGCAG”, the binding signal was 3840 fluorescence intensity (a.u.).

Regarding “TTTGATTTCACACATGATGTGCAAATTATCATGTGTTTTGCGGAGTCACCTAGTGCAG”, the binding signal was 26100 fluorescence intensity (a.u.).

On to “TTCGTGCCTTTTGTTTGATAATTTCTTCATGCTATCTTTTCGGAGTCACCTAGTGCAG”, for which the binding signal was 3660 fluorescence intensity (a.u.).

Consider “CGCTAAAATTGAATTTAAAGAAATTGGAACGATGTAATGGCGGAGTCACCTAGTGCAG”, for which the binding signal was 24500 fluorescence intensity (a.u.).

As to “GCCAGTTTGCTACAATTAATTGACCACATACAATTGGTGGCGGAGTCACCTAGTGCAG”, the binding signal is 25200 fluorescence intensity (a.u.).

With “ACAATCATCATTCATTCATGTTACCATGTCACCAGTCTCACGGAGTCACCTAGTGCAG”, the binding signal was 3230 fluorescence intensity (a.u.).

In the case of “AAGAGACACCAATTAACCATGTATAATTCATTTAGTCTCACGGAGTCACCTAGTGCAG”, the binding signal was 5500 fluorescence intensity (a.u.).

Turning to “ATGATTTGGATGTTTGAAACTTGAGAGTGGAATGCGACCCCGGAGTCACCTAGTGCAG”, the binding signal is 7270 fluorescence intensity (a.u.).

As for “AACTGATGAGATGGAAGAGATGTGGGAGGATAAACTTGTACGGAGTCACCTAGTGCAG”, the binding signal is 3700 fluorescence intensity (a.u.).

“AGTTTCAGGTAATTTTCTTTGGTGACTGCCGCATCTGTTACGGAGTCACCTAGTGCAG”: the binding signal was 4830 fluorescence intensity (a.u.).

On to “ACAAATTTACTCAAAATAATGCGCAATAAAAGGATTATTTCGGAGTCACCTAGTGCAG”, for which the binding signal was 3980 fluorescence intensity (a.u.).
